Assay results published in article PMC4336329 (PLoS ONE, 2015).
In all, about 310,000 compounds went through this assay and about 14,000 (4.5%) showed an effect of 50% or more. Effects have a minus sign here. Some of the results follow.

Biological target: human ether-à-go-go-related gene (hERG) potassium channel (human, UniProt Q12809)
Assay: primary screen, population patch clamp on CHO cells stably expressing hERG
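Further: peak tail current of the secondary pulse compared with the same well before compound.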

Chain of human ether-à-go-go-related gene (hERG) potassium channel (Q12809 whole entry, looked up): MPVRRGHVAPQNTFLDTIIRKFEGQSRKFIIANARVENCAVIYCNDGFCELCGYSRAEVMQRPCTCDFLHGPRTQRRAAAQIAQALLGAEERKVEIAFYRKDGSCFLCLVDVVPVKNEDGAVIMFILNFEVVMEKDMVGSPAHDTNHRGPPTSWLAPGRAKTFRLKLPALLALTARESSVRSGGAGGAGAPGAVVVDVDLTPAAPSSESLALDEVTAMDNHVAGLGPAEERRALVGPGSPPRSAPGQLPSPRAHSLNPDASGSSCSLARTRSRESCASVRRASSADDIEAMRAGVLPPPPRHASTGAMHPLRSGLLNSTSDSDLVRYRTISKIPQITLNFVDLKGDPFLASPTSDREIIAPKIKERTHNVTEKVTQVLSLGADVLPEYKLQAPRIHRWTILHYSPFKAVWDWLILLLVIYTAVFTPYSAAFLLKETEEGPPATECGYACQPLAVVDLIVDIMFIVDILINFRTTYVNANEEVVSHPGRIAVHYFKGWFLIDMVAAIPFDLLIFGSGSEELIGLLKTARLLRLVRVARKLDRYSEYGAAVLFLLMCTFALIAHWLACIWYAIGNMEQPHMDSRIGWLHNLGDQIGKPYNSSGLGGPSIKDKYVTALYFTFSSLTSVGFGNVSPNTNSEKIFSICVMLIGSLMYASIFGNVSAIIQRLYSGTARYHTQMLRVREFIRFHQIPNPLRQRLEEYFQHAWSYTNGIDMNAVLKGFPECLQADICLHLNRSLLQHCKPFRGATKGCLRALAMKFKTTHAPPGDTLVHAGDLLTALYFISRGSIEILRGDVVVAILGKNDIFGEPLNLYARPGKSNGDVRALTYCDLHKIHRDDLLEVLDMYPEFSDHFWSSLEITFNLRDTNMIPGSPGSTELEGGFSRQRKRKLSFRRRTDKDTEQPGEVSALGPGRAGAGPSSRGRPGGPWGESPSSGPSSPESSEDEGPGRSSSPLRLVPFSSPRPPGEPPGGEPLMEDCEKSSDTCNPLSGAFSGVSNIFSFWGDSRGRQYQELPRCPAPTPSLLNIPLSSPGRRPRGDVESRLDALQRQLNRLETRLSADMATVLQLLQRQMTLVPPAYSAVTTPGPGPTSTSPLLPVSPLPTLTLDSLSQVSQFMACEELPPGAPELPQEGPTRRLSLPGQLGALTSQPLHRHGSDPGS

| SMILES | hERG current change (%, negative = inhibition) at 10uM |
| --- | --- |
| Cn1c(=O)[nH]c(=O)c2c1nc(Br)n2Cc1ccccc1Cl | 5% |
| CN(Cc1cccc(-n2cccn2)c1)Cc1cn(C)nc1-c1ccccc1F | 15.9% |
| CCOC(=O)CCN(Cc1ccccc1)S(=O)(=O)c1csc(C(N)=O)c1 | -22.4% |
| CN(C)c1cc(-c2ccc(Br)cc2)oc(=O)c1Cl | 15.5% |
| Cc1ccnc(NS(=O)(=O)c2ccc(Oc3ccccc3)cc2)c1 | 19.3% |
| Cc1nnc(SCc2nc3ccccc3c(=O)n2-c2ccccc2Cl)n1N | -12.5% |
| CNC(=O)c1nnc(Cc2ccc(F)cc2)o1 | 9.51% |
| Clc1cccc(-c2cc3nc4c(c(N5CCOCC5)n3n2)CCCC4)c1 | -6.06% |
| O=C(NCCO)c1nc2ccccc2s1 | 13.3% |
| O=C(COC(=O)c1ccccc1)NC1CCCC1 | 5.12% |
| NC(=O)c1ccc(N2CCC(C(N)=O)CC2)c([N+](=O)[O-])c1 | 1.16% |
| CC(C)c1ccc(C(C(=O)NC(C)(C)C)N(C(=O)CNC(=O)c2ccco2)c2cccnc2)cc1 (centres unmarked) | 9.33% |
| CC(=O)NN1C(=O)/C(=C\c2ccc(Br)o2)SC1=S | -0.448% |
| CCC(C)NC(=O)C(=O)NCc1ccccn1 (centres unmarked) | 14.6% |
| COc1ccc(-c2n[nH]c(=S)n2Cc2ccccc2)cc1OC | -11.6% |
| O=C(CCn1c(=O)[nH]c2ccsc2c1=O)N1CCN(c2ccc([N+](=O)[O-])cc2)CC1 | -35.2% |
| COc1cc(S(=O)(=O)N2CCN=C2c2ccccc2)c(OC)cc1Cl | 11.6% |
| CNc1c2c(nn1C)CCCC2 | 27.1% |
| CCCS(=O)(=O)c1c(S(=O)(=O)CCC)c2c(N)cccn2c1C(=O)c1ccc(Br)cc1 | -4.52% |
| CCn1c(SCC(=O)Nc2ccc3c(c2)oc2ccccc23)nnc1-c1ccc(N)cc1 | -3.26% |
| COc1cc(NC(=O)c2cccs2)c(OC)cc1NC(=O)CCn1nnc2ccccc21 | -42.7% |
| C/C(CCc1ccc2c(c1)OCO2)=N\N=C1\NC(=O)CC(C(=O)Nc2ccccc2F)S1 (centres unmarked) | 3.99% |

| SMILES | hERG current change (%, negative = inhibition) at 10uM |
| --- | --- |
| COc1ccc(NC(=O)Nc2ccc(F)cc2F)cc1 | 11.9% |
| O=C(NCc1cccnc1)c1ccc(COc2cccc3ccccc23)o1 | -11.6% |
| Cc1nnc(SCC(=O)c2ccccc2F)n1Cc1ccccc1 | -2.85% |
| CCOc1cccc(NC(=O)c2ccc(S(=O)(=O)N3CCCC3)cc2)c1 | -12.1% |
| COc1ccc2c(C)cc(N3CCN(c4ccc(F)cc4)CC3)nc2c1 | -25.7% |
| COc1cc(C(=O)OCC(=O)Nc2ccc(N3CCOCC3)cc2)ccc1OCC(C)C | -4.48% |
| COC(=O)CCCC1=CC2=CC(=O)C(C)(OC(=O)c3cccs3)C(=O)C2=CN1Cc1ccc2c(c1)OCO2 (centres unmarked) | -7.74% |
| Cc1ccc(/C=C2\SC(N3CCCCC3)=NC2=O)cc1 | 0.193% |
| Cc1c2c(nc3ccccc13)CCC(C)C2.Cl (centres unmarked) | -43.1% |
| O=C(c1cccnc1)N1N=C(C2CCCCC2)CC1(O)C(F)(F)F (centres unmarked) | -0.742% |
| Brc1ccccc1C1N=C(c2ccccc2)NO1 (centres unmarked) | -6.1% |
| COc1ccc(-c2csc3ncnc(NCCCO)c23)cc1 | -13.3% |
| O=C(Nc1ccccc1)C1C2CCC3C(CCC21)C3(Cl)Cl (centres unmarked) | 12.2% |
| O=C(CSc1nnc(-c2cccnc2)o1)Nc1ccccc1Br | 10.5% |
| C#Cc1ccc([C@@H]2C=C(C(=O)NCc3ccccc3)O[C@H](OCc3ccc(CO)cc3)C2)cc1 | 6.15% |
| O=S(=O)(NCC1(N2CCOCC2)CCCCC1)c1ccc(F)cc1 | -5.62% |
| CC(=O)c1ccc(NC(=O)[C@@H]2CCCN2C(=O)OC(C)(C)C)cc1 | 15.7% |
| Cn1c(N)c(C(=O)COC(=O)CC(NC(=O)c2ccccc2Cl)c2ccccc2)c(=O)n(C)c1=O (centres unmarked) | -38.1% |
| O=C(CSc1nc2c(c(=O)n1-c1ccc(F)cc1)SCC2)NCc1ccco1 | -17.9% |
| CCOC(=O)c1[nH]c(C)c(C(=O)OCc2ccccc2F)c1C | 14% |
| COc1ccc(NS(=O)(=O)c2cccc(C(=O)NNC(=O)c3cc(C)oc3C)c2)cc1 | 11% |
| CC(=O)N1CCOc2ccc(S(=O)(=O)NCc3ccc(Cl)cc3)cc21 | -19.6% |
